Source: article PMC4336329 (PLoS ONE, 2015)
In all, about 310,000 compounds went through this assay and about 14,000 (4.5%) showed an effect of 50% or more. The effect is printed as a negative number. Some of the results follow.

The compounds below were run against human ether-à-go-go-related gene (hERG) potassium channel (human, UniProt Q12809) (assay: primary screen, population patch clamp on CHO cells stably expressing hERG).
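Note: peak tail current of the secondary pulse compared with the same well before compound.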

Sequence of human ether-à-go-go-related gene (hERG) potassium channel (Q12809 whole entry, looked up): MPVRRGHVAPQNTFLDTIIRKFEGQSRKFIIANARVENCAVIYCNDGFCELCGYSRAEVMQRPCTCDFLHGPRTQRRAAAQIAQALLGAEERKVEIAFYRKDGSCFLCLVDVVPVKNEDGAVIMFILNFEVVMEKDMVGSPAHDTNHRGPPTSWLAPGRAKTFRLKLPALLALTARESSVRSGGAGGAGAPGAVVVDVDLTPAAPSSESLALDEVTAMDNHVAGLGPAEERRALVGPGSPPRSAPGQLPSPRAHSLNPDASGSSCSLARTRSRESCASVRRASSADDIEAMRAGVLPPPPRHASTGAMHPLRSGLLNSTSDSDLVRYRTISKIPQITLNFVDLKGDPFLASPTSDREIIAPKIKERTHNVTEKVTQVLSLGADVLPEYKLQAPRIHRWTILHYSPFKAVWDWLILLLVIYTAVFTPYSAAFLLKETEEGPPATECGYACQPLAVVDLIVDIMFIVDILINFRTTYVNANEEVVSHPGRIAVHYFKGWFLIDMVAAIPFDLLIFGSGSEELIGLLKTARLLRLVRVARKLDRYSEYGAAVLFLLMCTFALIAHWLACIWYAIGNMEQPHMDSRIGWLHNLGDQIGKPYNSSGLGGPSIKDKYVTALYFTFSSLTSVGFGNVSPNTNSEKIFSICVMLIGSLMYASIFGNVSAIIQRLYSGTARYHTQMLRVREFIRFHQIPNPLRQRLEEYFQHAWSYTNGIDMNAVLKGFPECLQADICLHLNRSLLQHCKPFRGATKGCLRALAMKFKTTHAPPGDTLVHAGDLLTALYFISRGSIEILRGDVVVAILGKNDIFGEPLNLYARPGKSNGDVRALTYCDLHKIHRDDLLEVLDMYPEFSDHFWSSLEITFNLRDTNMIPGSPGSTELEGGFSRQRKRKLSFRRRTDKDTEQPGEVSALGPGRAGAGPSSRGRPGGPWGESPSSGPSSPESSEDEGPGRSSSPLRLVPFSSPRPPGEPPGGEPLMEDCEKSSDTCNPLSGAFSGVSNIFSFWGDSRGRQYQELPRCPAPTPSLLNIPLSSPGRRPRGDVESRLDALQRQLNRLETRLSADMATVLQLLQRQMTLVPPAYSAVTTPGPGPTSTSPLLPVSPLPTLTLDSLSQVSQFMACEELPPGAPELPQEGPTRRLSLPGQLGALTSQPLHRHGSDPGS

Compound	hERG current change (%, negative = inhibition) at 10uM
COc1ccc(N2CCN(C(=O)Cc3nn(C)c(=O)c4ccccc34)CC2)cc1	-23.8%
O=C(O)C(Cc1c[nH]c2ccccc12)N1C(=O)c2ccccc2C1=O (stereo not drawn)	-2.61%
COc1cc(CN2CCN(C(C)C)C(CCO)C2)ccc1OCc1ccccc1 (stereo not drawn)	-55.2%
Cc1ccsc1/C=N/NC(=O)C(N)=O	10.6%
Cc1ccc(OC[C@H](O)[C@H](C)NC(C)C)c2c1CCC2.Cl	-10.6%
O=S1(=O)CCO[C@H]2Cc3ccccc3[C@H]2N1Cc1ccccc1	-9.5%
CS(=O)(=O)N1N=C(c2cccs2)CC1c1ccc(F)cc1 (stereo not drawn)	1.38%
Cc1ccccc1C1C(C#N)=C2N=C(N)c3ccccc3N2C2=C1C(=O)CCC2 (stereo not drawn)	-4.41%
Cn1cnc2cc(OC(=O)c3ccccc3)ccc21	-10.8%
CC(=O)Nc1ccc(S(=O)(=O)NCc2cccnc2)cc1	10.6%
Cc1nc2c3ccccc3nc(NNC(=O)CCC(=O)NCCN3CCN(c4ccccc4F)CC3)n2n1	2.88%
CCN(CC(O)Cn1c2ccccc2c2ccccc21)S(=O)(=O)c1ccc(F)cc1 (stereo not drawn)	12.2%
Cc1cc([N+](=O)[O-])ccc1NC(=O)Nc1ccccc1F	10%
Cc1ccccc1N1OC2C(=O)N(c3ccc(F)cc3)C(=O)C2C1c1ccccn1 (stereo not drawn)	6.95%
Cc1ccc(CSCC(=O)N(C)CC(=O)Nc2ccc(C)cc2)cc1	-2.48%
COc1ccccc1OCCn1c(SCC(=O)O)nc2ccccc21	-4.47%
CC(OC(=O)C1=COCCO1)C(=O)NC1CCCCC1C (stereo not drawn)	12.7%
Cc1ccnc(Sc2ncccc2[N+](=O)[O-])n1	16%
CCn1c(COc2ccccc2Cl)nnc1SCC(=O)Nc1ncccc1C	-2.78%

Compound	hERG current change (%, negative = inhibition) at 10uM
CCOC(=O)c1ccc2c(c1)n(CCO)c(C)[n+]2CC.[I-]	10.6%
COc1ccc(Cl)cc1NC(=O)CSc1nnc(Cc2ccc(C)cc2)c(=O)[nH]1	-5.22%
Cc1ccc(Nc2nc(N)nc(CN3CCN(Cc4ccc5c(c4)OCO5)CC3)n2)cc1	-73.3%
CC(C)(C)OC(=O)N/N=C/c1cn(-c2ccccc2)nc1-c1cccnc1	-49.3%
NC1=NN(c2cccc(C(=O)O)c2)C(=O)C1	34.2%
CCOC(=O)c1cnc2c(OC)cccc2c1N1CCN(c2ccccc2OC)CC1	-45.4%
CC(=O)N(C(C)=O)c1nc(-c2ccccc2)cn1/N=C/c1ccccc1	14.2%
CCC1=NN(C(=O)c2ccc(Cl)cc2)C(O)(c2ccccc2)C1 (stereo not drawn)	-4.82%
COc1cccc(NC(=O)c2cccc(C(=O)Nc3cccc(OC)c3)n2)c1	25%
N#Cc1c(NC(=O)CSc2ncn(-c3ccccc3)n2)sc2c1CCCC2	5.33%
Cc1ccc(CSc2nnc([C@@H]3CCCN3)o2)cc1.Cl	-10.2%
COc1ccc(C)cc1NC(=O)c1ccc(NS(=O)(=O)c2cccs2)cc1	23.4%
O=C(NC(=S)N1CCN(C/C=C/c2ccccc2)CC1)c1ccc(F)cc1	-43.7%
Cc1cc(C)c2nc(N3CCCC(C(=O)N4CCC(C(N)=O)CC4)C3)sc2c1 (stereo not drawn)	-19.3%
COc1ccc(Cn2c(C)cc3c(c2=O)C(c2cccs2)C(C#N)=C(N)O3)cc1OC (stereo not drawn)	1.42%
CCOC(=O)N1CCC(n2c(=S)[nH]c3cc(OCC)c(OCC)cc3c2=O)CC1	0.579%
CN1C(=O)[C@H]2[C@@H](C3CC3)N3C(=O)CN(CCO)C(=O)[C@@]3(Cc3ccccc3)[C@H]2C1=O	6.03%
Cc1[nH]c2ccccc2c1/C=N/NC(=O)CNC(=O)c1cccs1	11.4%
O=C(CN1C(=O)NC2(CCCC2)C1=O)Nc1ccc(Cl)cc1C(F)(F)F	6.83%

Compound	hERG current change (%, negative = inhibition) at 10uM
Cc1ccc(C(=O)CSc2nc3ccccc3c(=O)n2N)o1	-1.95%
CCOC(=O)C1CCN(C(=O)Nc2ccc3oc(C)nc3c2)CC1	7.35%
CCOC(=O)CCCCC(=O)c1[nH]c(=O)[nH]c1CSc1nc(C)cc(=O)[nH]1	15.1%
CCOc1ccc(C(=O)CCN2CCOCC2)cc1.Cl	6.35%
CC(=O)N/C(=N\c1nc(C)cc(C)n1)Nc1ccc(Cl)cc1Cl	17.7%
CCN(CC(=O)NC1CCS(=O)(=O)C1)S(=O)(=O)c1cc([N+](=O)[O-])ccc1C (stereo not drawn)	-4.81%
COc1ccc(NC(=O)c2nc3ccccc3s2)cc1	1.34%
COc1ccc(C2N(C(C)=O)CCN2S(=O)(=O)c2ccc(C)cc2)cc1 (stereo not drawn)	-8.25%
COc1ccc(CC2(CO)CCN(Cc3nc(C(C)C)cs3)CC2)cc1	-48.4%
COc1ccc(CCCC(=O)NCCc2ccccc2)cc1	8.84%
O=C1NC2(CCCCC2)N=C1c1ccc(Br)cc1	7.33%
O=C(CCc1ccccc1)Nc1ccccc1C(=O)N1CCOCC1	9.16%
O=c1[nH]c2ccc(NC(=S)Nc3ccc(Cl)cc3)cc2[nH]1	16.8%
COc1ccc2c(C#N)c3ccccn3c2c1	-3.17%
C=COCCNC(=S)N1CCOCCOCCN(C(=S)NCCOC=C)CCOCC1	55.7%
CC1CCN(C(=O)CN(CCc2ccccc2)S(C)(=O)=O)CC1	-0.154%
O=C1NC(c2ccccc2Br)=N/C1=C\c1ccco1	2.86%
O=C(NC(=S)NCc1ccccc1)C1CC1	7.43%
COc1ccc(C2N(c3cccc(Cl)c3)C(=O)C3CCCN32)cc1 (stereo not drawn)	-4.79%
